The list shows a part of the results. No stated cut-off is given here; in the data, active = 3.2 or more and inactive = the rest. The signal is at background level for most entries.
What was measured:
Assay in all cases: enrichment score (SH2-bound / input frequency) (ratio); bacterial display of known human phosphotyrosine sites (pTyr-Var adds point mutants) read by sequencing; higher = stronger binding; tyrosines were phosphorylated by kinases first
Settings in all cases: peptide library: pTyr-Var
SHP2 C-SH2 domain E139D = molecular target: SHP2 C-SH2 domain E139D
[1] = molecular target: SHP2 C-SH2 domain wild-type
SHP2 N-SH2 domain L43F = molecular target: SHP2 N-SH2 domain L43F
SHP2 N-SH2 domain T42A = molecular target: SHP2 N-SH2 domain T42A
SHP2 N-SH2 domain T52S = molecular target: SHP2 N-SH2 domain T52S
[2] = molecular target: SHP2 N-SH2 domain wild-type
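Further: displayed peptides selected on beads carrying the immobilized SH2 domain, with library peptides lacking any tyrosine serving as negative controls.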

For LTTEVYFPSIK [C5orf64_Y60_A57T], the enrichment score (SHP2 C-SH2 domain E139D) was inactive: 1.7, the enrichment score [1] was inactive: 0.997 and the enrichment score (SHP2 N-SH2 domain L43F) was inactive: 0.958. The enrichment score (SHP2 N-SH2 domain T42A) was inactive: 1.36, the enrichment score (SHP2 N-SH2 domain T52S) was inactive: 1.12 and the enrichment score [2] was inactive: 1.1.

VSKGGYFSVNL [C3orf33_Y164] was tested, and the enrichment score (SHP2 C-SH2 domain E139D) was inactive: 1.19, the enrichment score [1] was inactive: 1.36 and the enrichment score (SHP2 N-SH2 domain L43F) was inactive: 1.01. The enrichment score (SHP2 N-SH2 domain T42A) was inactive: 1.1, the enrichment score (SHP2 N-SH2 domain T52S) was inactive: 1.07 and the enrichment score [2] was inactive: 0.976.

For RCKSHYAAFSV [C1QTNF1_Y145], the enrichment score (SHP2 C-SH2 domain E139D) was inactive: 3.04, the enrichment score [1] was inactive: 3.07 and the enrichment score (SHP2 N-SH2 domain L43F) was inactive: 3.03. The enrichment score (SHP2 N-SH2 domain T42A) was inactive: 2.71, the enrichment score (SHP2 N-SH2 domain T52S) was inactive: 2.98 and the enrichment score [2] was inactive: 2.13.

AGVDRYSLGTS [C5orf42_Y1451_P1446A] was tested, and the enrichment score (SHP2 C-SH2 domain E139D) was inactive: 0.656, the enrichment score [1] was inactive: 0.506 and the enrichment score (SHP2 N-SH2 domain L43F) was inactive: 0.583. The enrichment score (SHP2 N-SH2 domain T42A) was inactive: 0.516, the enrichment score (SHP2 N-SH2 domain T52S) was inactive: 0.556 and the enrichment score [2] was inactive: 0.736.

With CETMEYLESKQ [BTK_Y511_A508T] the enrichment score (SHP2 C-SH2 domain E139D) was inactive: 0.94, the enrichment score [1] was inactive: 1.05 and the enrichment score (SHP2 N-SH2 domain L43F) was inactive: 0.818. For the same binder, the enrichment score (SHP2 N-SH2 domain T42A) was inactive: 0.845, the enrichment score (SHP2 N-SH2 domain T52S) was inactive: 0.606 and the enrichment score [2] was inactive: 1.1.

For MQMEEYRGRVE [BTNL2_Y91_W94R], the enrichment score (SHP2 C-SH2 domain E139D) was inactive: 0.525, the enrichment score [1] was inactive: 0.581 and the enrichment score (SHP2 N-SH2 domain L43F) was inactive: 0.725. The enrichment score (SHP2 N-SH2 domain T42A) was inactive: 0.582, the enrichment score (SHP2 N-SH2 domain T52S) was inactive: 0.65 and the enrichment score [2] was inactive: 1.36.

With SREALYNETDP [CACNA1A_Y794_M797T] the enrichment score (SHP2 C-SH2 domain E139D) was inactive: 0.589, the enrichment score [1] was inactive: 0.552 and the enrichment score (SHP2 N-SH2 domain L43F) was inactive: 0.674. For the same binder, the enrichment score (SHP2 N-SH2 domain T42A) was inactive: 0.557, the enrichment score (SHP2 N-SH2 domain T52S) was inactive: 0.737 and the enrichment score [2] was inactive: 0.713.

KLSCSYSHLSA [C4BPA_Y470_W473L] was tested, and the enrichment score (SHP2 C-SH2 domain E139D) was inactive: 0.912, the enrichment score [1] was inactive: 1.25 and the enrichment score (SHP2 N-SH2 domain L43F) was inactive: 0.96. For the same binder, the enrichment score (SHP2 N-SH2 domain T42A) was inactive: 1.1, the enrichment score (SHP2 N-SH2 domain T52S) was inactive: 0.88 and the enrichment score [2] was inactive: 1.58.

With NKFTTYLPWLP [C9orf24_Y126_R129W_YF] the enrichment score (SHP2 C-SH2 domain E139D) was inactive: 1.7, the enrichment score [1] was inactive: 1.58 and the enrichment score (SHP2 N-SH2 domain L43F) was inactive: 1.52. The enrichment score (SHP2 N-SH2 domain T42A) was inactive: 1.51, the enrichment score (SHP2 N-SH2 domain T52S) was inactive: 1.74 and the enrichment score [2] was inactive: 1.74.

MRTMGYMPTEM [CABP5_Y62] was tested, and the enrichment score (SHP2 C-SH2 domain E139D) was inactive: 0.949, the enrichment score [1] was inactive: 0.684 and the enrichment score (SHP2 N-SH2 domain L43F) was inactive: 0.727. The enrichment score (SHP2 N-SH2 domain T42A) was inactive: 0.695, the enrichment score (SHP2 N-SH2 domain T52S) was inactive: 0.752 and the enrichment score [2] was inactive: 0.839.

In the case of VHYLVYHHHHH [CACNA1H_Y519_H516Y], the enrichment score (SHP2 C-SH2 domain E139D) is reported as inactive: 2.93, the enrichment score [1] is reported as inactive: 3.13 and the enrichment score (SHP2 N-SH2 domain L43F) is reported as active: 3.51. For the same binder, the enrichment score (SHP2 N-SH2 domain T42A) was inactive: 2.15, the enrichment score (SHP2 N-SH2 domain T52S) was inactive: 2.3 and the enrichment score [2] was inactive: 3.

With QGLRLYRTHLA [BTK_Y617_P619T] the enrichment score (SHP2 C-SH2 domain E139D) was inactive: 1.79, the enrichment score [1] was inactive: 1.27 and the enrichment score (SHP2 N-SH2 domain L43F) was inactive: 2.01. The enrichment score (SHP2 N-SH2 domain T42A) was inactive: 1.49, the enrichment score (SHP2 N-SH2 domain T52S) was inactive: 2.17 and the enrichment score [2] was inactive: 1.67.

For NKYTTYLPRLP [C9orf24_Y126], the enrichment score (SHP2 C-SH2 domain E139D) was inactive: 0.962, the enrichment score [1] was inactive: 0.855 and the enrichment score (SHP2 N-SH2 domain L43F) was inactive: 0.922. For the same binder, the enrichment score (SHP2 N-SH2 domain T42A) was inactive: 0.792, the enrichment score (SHP2 N-SH2 domain T52S) was inactive: 0.76 and the enrichment score [2] was inactive: 0.963.

In the case of GAPATYEGDAR [CACNA1A_Y1013], the enrichment score (SHP2 C-SH2 domain E139D) is reported as inactive: 0.404, the enrichment score [1] is reported as inactive: 0.456 and the enrichment score (SHP2 N-SH2 domain L43F) is reported as inactive: 0.371. The enrichment score (SHP2 N-SH2 domain T42A) was inactive: 0.38, the enrichment score (SHP2 N-SH2 domain T52S) was inactive: 0.506 and the enrichment score [2] was inactive: 0.501.

In the case of VNKGGYFSVNL [C3orf33_Y164_S160N], the enrichment score (SHP2 C-SH2 domain E139D) is reported as inactive: 1.2, the enrichment score [1] is reported as inactive: 1.13 and the enrichment score (SHP2 N-SH2 domain L43F) is reported as inactive: 1.26. For the same binder, the enrichment score (SHP2 N-SH2 domain T42A) was inactive: 0.99, the enrichment score (SHP2 N-SH2 domain T52S) was inactive: 0.941 and the enrichment score [2] was inactive: 1.05.

For CEAVEYLESKQ [BTK_Y511_M509V], the enrichment score (SHP2 C-SH2 domain E139D) was inactive: 0.895, the enrichment score [1] was inactive: 1.05 and the enrichment score (SHP2 N-SH2 domain L43F) was inactive: 0.883. For the same binder, the enrichment score (SHP2 N-SH2 domain T42A) was inactive: 0.7, the enrichment score (SHP2 N-SH2 domain T52S) was inactive: 1.03 and the enrichment score [2] was inactive: 0.989.

GNHISYYQSDG [CACNA1C_Y1757_V1755I] was tested, and the enrichment score (SHP2 C-SH2 domain E139D) was inactive: 0.757, the enrichment score [1] was inactive: 0.411 and the enrichment score (SHP2 N-SH2 domain L43F) was inactive: 0.639. The enrichment score (SHP2 N-SH2 domain T42A) was inactive: 0.512, the enrichment score (SHP2 N-SH2 domain T52S) was inactive: 0.675 and the enrichment score [2] was inactive: 0.538.

GAPATYKGDAR [CACNA1A_Y1013_E1014K] was tested, and the enrichment score (SHP2 C-SH2 domain E139D) was inactive: 0.461, the enrichment score [1] was inactive: 0.496 and the enrichment score (SHP2 N-SH2 domain L43F) was inactive: 0.389. The enrichment score (SHP2 N-SH2 domain T42A) was inactive: 0.453, the enrichment score (SHP2 N-SH2 domain T52S) was inactive: 0.377 and the enrichment score [2] was inactive: 0.559.

With CEAIEYLESKQ [BTK_Y511_M509I] the enrichment score (SHP2 C-SH2 domain E139D) was inactive: 0.881, the enrichment score [1] was inactive: 1.44 and the enrichment score (SHP2 N-SH2 domain L43F) was inactive: 1.08. The enrichment score (SHP2 N-SH2 domain T42A) was inactive: 1.03, the enrichment score (SHP2 N-SH2 domain T52S) was inactive: 0.918 and the enrichment score [2] was inactive: 1.57.

Source: the supplement of paper PMC10369915
